Whole data set: some 16,000 sequences, median “Z-score” near -0.37, cut for the highest 2% near 3.2. This is one part of the list.

This assay has as its system RBM10 RRM1-ZnF (GST-tagged construct). The assay is described as follows: RNAcompete 7-mer binding Z-score; higher = stronger binding preference. The essentials: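 GST-tagged RBM10 constructs (20 pmol) and a designed pool of 241 399 RNAs up to 41 nt (1.5 nmol) were allowed to bind for 30 min at 4°C in 1 ml Hepes pH 7.8 buffer with glutathione Sepharose beads. After four 2-min washes at 4°C, bound RNA was identified by microarray hybridisation. Enrichment was scored per heptamer motif as a one-sided Z-score across the probes containing it.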
Consider CCGAUCC, for which the “RNAcompete 7-mer binding Z-score” value was -0.772.
On to GCGUCCU, for which the “RNAcompete 7-mer binding Z-score” value is -0.542.
For the sequence GCGAAGA, the “RNAcompete 7-mer binding Z-score” value stood at 0.43.
On to AGCUGGU, for which the “RNAcompete 7-mer binding Z-score” value worked out at 1.09.
For the sequence GACCAAC, the “RNAcompete 7-mer binding Z-score” value is -0.451.
To AACGGGU belongs 3.03; to AAACAUA, -0.428.
On to AUGCAAA, for which the “RNAcompete 7-mer binding Z-score” value is -0.321.
As to AACAUUG, the “RNAcompete 7-mer binding Z-score” value was -0.227.
To ACAAGUU belongs -0.558.
Turning to GAUGCCA, the “RNAcompete 7-mer binding Z-score” value is -0.607.
Regarding CCGAUCG, the “RNAcompete 7-mer binding Z-score” value is -0.441.
For ACGAAAC, the “RNAcompete 7-mer binding Z-score” value was -0.298.
In the case of ACAGCAU, the “RNAcompete 7-mer binding Z-score” value is -0.652.
On to CCCCCGC, for which the “RNAcompete 7-mer binding Z-score” value was -0.233.
Consider AAACCUC, for which the “RNAcompete 7-mer binding Z-score” value is -0.802.
Regarding GAUCAUU, the “RNAcompete 7-mer binding Z-score” value is -0.685.
In the case of GCUUUCG, the “RNAcompete 7-mer binding Z-score” value is -0.727.
Consider GGUAGCG, for which the “RNAcompete 7-mer binding Z-score” value came out at 1.67.
With CUGGUCG, the “RNAcompete 7-mer binding Z-score” value is 0.222.
Consider AACAGAA, for which the “RNAcompete 7-mer binding Z-score” value is -0.0447.
Consider CCUGCAU, for which the “RNAcompete 7-mer binding Z-score” value is -0.776.
In the case of AUGUAUU, the “RNAcompete 7-mer binding Z-score” value was -0.552.
Regarding CGGGGGU, the “RNAcompete 7-mer binding Z-score” value came to 3.46.
With UAUUUCC the figure was -0.974; with CUGGAAC, -0.0155; with GAUUCAA, -0.474.
With CCGGACG the figure was -0.129; with GACCGUC, -0.886; with CGCAGGC, -0.0414.
With GUGAAGC the figure was 0.488; with UCCCCCU, -0.487.
In the case of CGCACGC, the “RNAcompete 7-mer binding Z-score” value is -0.503.
With UCCGUUG the figure was -0.344; with GGAAUAG, 2.52.
As to GAGGAUC, the “RNAcompete 7-mer binding Z-score” value came to 0.517.
To GAAUCUA belongs -0.379.
Consider CGUAAAC, for which the “RNAcompete 7-mer binding Z-score” value was -0.428.
For CUUAGAA, the “RNAcompete 7-mer binding Z-score” value is -0.529.
GUAGUCU: the “RNAcompete 7-mer binding Z-score” value is -0.428.
With CUUGGGA, the “RNAcompete 7-mer binding Z-score” value came to 0.966.
With AAGCGUU, the “RNAcompete 7-mer binding Z-score” value was -0.366.
For the sequence CAUUAAG, the “RNAcompete 7-mer binding Z-score” value is -0.422.

For the origin of these results see the supplement of paper PMC5499739.
